# Laboratory results as given in PubChem BioAssay AID761 (NMMLSC, 2007).
# Screen size: about 190,000 compounds; about 400 (0.21%) were called active. This list was built around the results that the source calls inconclusive (neither active nor inactive); the mix of calls is not that of the screen.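 The calls were made as follows: active = percent activity GTP binding at least 20 points away from the 100% baseline, either down as inhibitor or up as activator; inconclusive = compound flagged as likely green fluorescent from well-wide comparison; inactive = the rest.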
# Target: Cell division control protein 42 homolog (Homo sapiens) (UniProt P60953)
# Sequence of UniProt P60953 (P60953 whole entry, looked up): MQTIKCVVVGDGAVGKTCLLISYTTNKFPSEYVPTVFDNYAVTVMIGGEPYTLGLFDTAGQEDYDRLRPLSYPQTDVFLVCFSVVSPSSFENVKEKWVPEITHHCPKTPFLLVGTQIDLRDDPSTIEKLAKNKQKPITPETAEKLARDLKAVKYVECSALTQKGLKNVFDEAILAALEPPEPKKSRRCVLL
# Experiment: wildtype Cdc42 fluorescent GTP binding changes, either direction – biochemical, multiplex bead flow cytometry, Bodipy-GTP, primary screen (AID 761);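 also: median bead fluorescence of bound Bodipy-FL-GTP at 100 nM; 0% = excess unlabeled GTP control and 100% = no compound control; below 100% means less GTP binding so inhibitor and above means activator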
# Conditions: GST-Cdc42 beads, at 10 µM, actives lie on both sides
row,SMILES,percent activity (GTP binding)
1,CC(C)C[C@H](NC(=O)Nc1ccc(S(N)(=O)=O)cc1)C(=O)O,inconclusive: 111%
2,O=C(Nc1nc(-c2ccc(S(=O)(=O)N3CCCCCC3)cc2)cs1)c1cccs1,inconclusive: 81%
3,COc1ccc(OC)c(Nc2nc(-c3sc(N)nc3C)cs2)c1,active: 77%
4,O=C(CCCSc1nc(-c2ccco2)cc(C(F)(F)F)n1)NCc1cccs1,inconclusive: 91%
5,CCC1CCCCN1S(=O)(=O)c1ccc(NC(=O)CSc2ncccc2C(=O)O)cc1 (stereo unspecified),inconclusive: 87%
6,CNc1cncc(C(=O)O)c1,inactive: 99%
7,O=C(Nc1ccc(N2CCCC2)c(Cl)c1)c1cccs1,inconclusive: 96%
8,COc1ccccc1C1/C(=C(/O)c2ccccc2)C(=O)C(=O)N1CCO (stereo unspecified),inconclusive: 107%
9,CSc1nc(Cc2ccccc2)cc(=O)[nH]1,active: 120% [activator]
10,O=C(Nc1ccc2c3c(cccc13)CC2)c1ccco1,inconclusive: 103%
11,CC(=O)Nc1cccc(C(=O)/C=C/c2ccco2)c1,inconclusive: 110%
12,CCN(CC)C(=O)CSc1nnnn1-c1ccc(F)c(Cl)c1,inactive: 96%
13,Cc1ccc(S(=O)(=O)N(C)C)cc1NC(=O)CCNC(=O)c1ccccc1Cl,inactive: 99%
14,COc1cccc(-c2csc3nnc(SCC(=O)c4ccc(NC(C)=O)cc4)n23)c1,inconclusive: 106%
15,Cc1ccc(-c2n[nH]c(=S)c3ccccc23)cc1,inconclusive: 92%
16,COc1ccc(-c2cc(=O)c3cc(OC)ccc3[nH]2)cc1,inconclusive: 132%
17,Cc1[nH]c2ccccc2c1/C=C(\C#N)C(=O)NC(C)c1ccccc1 (stereo unspecified),inconclusive: 93%
18,O=C(NC1CCCC1)C(c1ccncc1)N(Cc1ccccc1)C(=O)Cc1cccs1 (stereo unspecified),inconclusive: 106%
19,Cc1ccc(OC(=O)c2cc3ccccc3o2)cc1,inconclusive: 105%
20,Cc1ccc(CN2CCN(/N=C/c3cc(Br)cc(Br)c3O)CC2)c(C)c1,inconclusive: 98%
21,CCOc1ccc(Oc2ccc(Cl)cc2N)cc1,inactive: 93%

row,SMILES,percent activity (GTP binding)
1,Brc1ccccc1-c1nnc(SCc2nc3ccccc3s2)o1,inconclusive: 91%
2,CCc1cc(C(=O)N2CCCC(CNS(=O)(=O)c3cccs3)C2)n(C)n1 (stereo unspecified),inactive: 95%
3,CCc1nc2ccccc2n1Cc1ccccc1F,inactive: 85%
4,Cn1ncc(C#N)c1/N=C/N(Cc1ccccc1)Cc1ccccc1,inconclusive: 103%
5,Cc1ccc(C(=O)NN2C(=O)/C(=C/c3cccn3C)SC2=S)cc1,inconclusive: 89%
6,O=C(Nc1ccccc1-c1ccccc1)NC1CC2CCCC(C1)N2Cc1ccc(F)cc1 (stereo unspecified),inconclusive: 97%
7,NC(=O)c1ccc2nc(NC(=O)c3ccc(N)cc3)sc2c1,inconclusive: 92%
8,COc1ccc(CCn2c(C)cc(C(=O)CSc3nnnn3-c3ccccc3)c2C)cc1,inconclusive: 108%
9,CCNC(=O)COc1ccc(Br)cc1Cl,inconclusive: 102%
10,COc1ccc(F)cc1C(=O)C1CCCN(Cc2ccc(Oc3ncccn3)cc2)C1 (stereo unspecified),inconclusive: 96%
11,O=C(NCCNc1ccc([N+](=O)[O-])cc1C(F)(F)F)c1ccc(F)cc1,inconclusive: 103%
12,O=C(CCCO)CCCCCCCCC[C@H]1N[C@H](CO)[C@@H](O)[C@@H]1O,inactive: 103%
13,Cc1cc(-n2c(=O)c(C#N)cc3c(=O)n4cccc(C)c4nc32)no1,inconclusive: 106%
14,COc1cc(/C=N/NC(=O)Nc2cccc3nsnc23)cc(OC)c1OC,active: 56%
15,CC(=O)N1CCN(c2ccc(NC(=O)c3ccc(C)cc3)cc2)CC1,inconclusive: 109%
16,CC(=O)Nc1ccc(OCc2nnc(-c3ccc(Cl)cc3)o2)cc1,inconclusive: 92%
17,C=CCN(C(=O)C1=NN(C2CCS(=O)(=O)C2)C(=O)CC1)c1nc(-c2ccc([N+](=O)[O-])cc2)cs1 (stereo unspecified),inactive: 94%
18,Cc1ccccc1Cn1cnc2c([N+](=O)[O-])c(C)c(C)cc21,inconclusive: 94%
19,COc1cccc(/C=N/NC(=O)COc2cccc3cccnc23)c1O,inconclusive: 95%
20,O=C(NC1CC1)c1cc(F)c(F)cc1Cl,inconclusive: 97%
21,COC(=O)CS(=O)(=O)c1ccsc1C(=O)Nc1ccc(F)cc1,inactive: 93%

row,SMILES,percent activity (GTP binding)
1,COc1ccc(CN(C(=O)c2cccs2)c2ccccc2)cc1,inconclusive: 93%
2,COC(=O)CN1C(=O)S/C(=C/c2ccc(N3CCCCC3)o2)C1=O,inconclusive: 110%
3,CCCCNC(=O)NNC(=O)c1ccc(F)cc1,inconclusive: 104%
4,COc1cccc(-c2nc3ccc(O)cc3c(=O)o2)c1,inconclusive: 95%
5,O=C(CCc1nnc(-c2ccc3c(c2)OCO3)o1)N1CCC(c2ccc(F)cc2)C1 (stereo unspecified),inactive: 81%
6,O=C(N/C(=C\c1cccc([N+](=O)[O-])c1)C(=O)N(CCO)CCO)c1ccco1,inactive: 97%
7,CNC(=S)NNS(=O)(=O)c1ccc(OC)cc1OC,inactive: 97%
8,Cc1nnc(SCC(=O)N2CCOCC2)c2ccccc12,inconclusive: 68%
9,NNc1nc(-c2ccccc2)cs1,inconclusive: 108%
10,Clc1ccc(-c2noc(CN3CCCC3)n2)cc1,inconclusive: 108%
11,O=C(COC(=O)c1ccc(Cl)nc1)Nc1ccccc1OC(F)F,inconclusive: 96%
12,Cc1ccc(Cl)cc1N1CCN(Cc2nnnn2Cc2ccco2)CC1,inconclusive: 99%
13,O=c1ccc(NS(=O)(=O)c2ccccc2)cn1Cc1ccc(Cl)c(Cl)c1,inconclusive: 106%
14,O=C(Cn1nc(-c2ccccc2)ccc1=O)NCC1CCCO1 (stereo unspecified),inconclusive: 93%
15,Cc1cccc(N2CCN(CCNC(=O)c3cc4c(s3)CS(=O)(=O)C4)CC2)c1C,inconclusive: 104%
16,CCOC(=O)c1ccc(NC(=S)N(CCCN2CCCCCC2)Cc2ccco2)cc1,inconclusive: 104%
17,COCCNC(=O)c1cc2c(-c3ccc(Cl)cc3)nn(C)c2s1,inconclusive: 93%
18,COc1ccc(C(=O)OCC(=O)NC(=O)NC2CCCC2)c(OC)c1,inactive: 97%
19,O=C(COC(=O)c1cncc(Br)c1)Nc1ccc2c(c1)OCO2,inconclusive: 89%
